Common to all, as to assay: CLSI broth microdilution.
On the technique in general: Dilution methods test growth across graded concentrations, often in twofold steps.

Compound in assay [1]: CCC(C)n1ncn(-c2ccc(N3CCN(c4ccc(OCC5COC(Cn6cncn6)(c6ccc(Cl)cc6Cl)O5)cc4)CC3)cc2)c1=O [itraconazole]
Compound in assay [2]: CCCCCOc1ccc(-c2cc(-c3ccc(C(=O)N[C@H]4C[C@@H](O)[C@@H](O)NC(=O)[C@@H]5[C@@H](O)[C@@H](C)CN5C(=O)[C@H]([C@H](O)CC(N)=O)NC(=O)[C@H]([C@H](O)[C@@H](O)c5ccc(O)c(OS(=O)(=O)O)c5)NC(=O)[C@@H]5C[C@@H](O)CN5C(=O)[C@H]([C@@H](C)O)NC4=O)cc3)no2)cc1 [micafungin]
Compound in assay [3]: CCCCCOc1ccc(-c2ccc(-c3ccc(C(=O)N[C@H]4C[C@@H](O)[C@@H](O)NC(=O)[C@@H]5[C@@H](O)[C@@H](C)CN5C(=O)[C@H]([C@@H](C)O)NC(=O)[C@H]([C@H](O)[C@@H](O)c5ccc(O)cc5)NC(=O)[C@@H]5C[C@@H](O)CN5C(=O)[C@H]([C@@H](C)O)NC4=O)cc3)cc2)cc1 [anidulafungin]
Compound in assay [4]: CC[C@@H]([C@H](C)O)n1ncn(-c2ccc(N3CCN(c4ccc(OC[C@@H]5CO[C@@](Cn6cncn6)(c6ccc(F)cc6F)C5)cc4)CC3)cc2)c1=O [posaconazole]
Compound in assay [5]: CC[C@H](C)C[C@H](C)CCCCCCCCC(=O)N[C@H]1C[C@@H](O)[C@@H](NCCN)NC(=O)[C@@H]2[C@@H](O)CCN2C(=O)[C@H]([C@H](O)CCN)NC(=O)[C@H]([C@H](O)[C@@H](O)c2ccc(O)cc2)NC(=O)[C@@H]2C[C@@H](O)CN2C(=O)[C@H]([C@@H](C)O)NC1=O [caspofungin]
Compound in assay [6]: C[C@@H](c1ncncc1F)[C@](O)(Cn1cncn1)c1ccc(F)cc1F [voriconazole]
Compound in assay [7]: C[C@@H]1[C@H](O)[C@@H](C)/C=C/C=C/C=C/C=C/C=C/C=C/C=C/[C@H](O[C@@H]2O[C@H](C)[C@@H](O)[C@H](N)[C@@H]2O)C[C@@H]2O[C@](O)(C[C@@H](O)C[C@@H](O)[C@H](O)CC[C@@H](O)C[C@@H](O)CC(=O)O[C@H]1C)C[C@H](O)[C@H]2C(=O)O [amphotericin B]
Compound in assay [8]: Nc1[nH]c(=O)ncc1F [flucytosine]
Compound in assay [9]: OC(Cn1cncn1)(Cn1cncn1)c1ccc(F)cc1F [fluconazole]

MIC of clinical C. albicans isolates, CLSI broth microdilution (ranges and time not stated); higher = less susceptible. Call: susceptible or wild type [S] / resistant or non-wild type [R] by CLSI breakpoints or epidemiological cut-offs; intermediate and dose-dependent carry no call here (the paper groups them with resistant). '<=' and '>=' mark each drug's lowest and highest value, inferred; the source prints them plain. Isolates are numbered anew. Bounds are passed on as bounds.

Our source for the MIC values is the supplement of paper PMC9927326.

The term MIC denotes the lowest concentration that inhibits growth of the organism. Regarding “Candida albicans isolate 311 (Erg11p: E266D, Fur1p: WT, Tac1p: C908Y,A377V,N174D,M170I,I109N,K87N)”, the MIC in assay [1] is 0.03 mg/L [S]; in assay [2] it was 0.015 mg/L [S]; in assay [3], 0.12 mg/L [S]; in assay [4], 0.015 mg/L [S]; in assay [5], 0.06 mg/L [S]; in assay [6], at most 0.008 mg/L [S]. In addition, the minimal inhibitory concentration (MIC) was 0.25 mg/L [S] in assay [7], at most 0.06 mg/L [S] in [8] and 0.25 mg/L [S] in [9].
With “Candida albicans isolate 312 (Erg11p: Y132H,T123I, Fur1p: R101C, Tac1p: WT)”, the MIC in assay [1] is 0.12 mg/L [S]; in assay [2], 0.015 mg/L [S]; in assay [3], at most 0.015 mg/L [S]; in [4], 0.03 mg/L [S]; in assay [5], 0.015 mg/L [S]; in [6] it was 0.25 µg/mL. In addition, the MIC in [7] worked out at 0.5 mg/L [S]; in assay [8], 0.25 mg/L [S]; in [9], 4 µg/mL.
For the test system “Candida albicans isolate 313 (Erg11p: WT, Fur1p: WT, Tac1p: I558V,A377V,F189S,N174D,M170I,K87N)”, the MIC was at most 0.015 mg/L [S] in assay [1]; 0.015 mg/L [S] in [2]; at most 0.015 mg/L [S] in [3]; 0.015 mg/L [S] in assay [4]; 0.03 mg/L [S] in assay [5]; at most 0.008 mg/L [S] in assay [6]. Further, the MIC in [7] was 0.25 mg/L [S]; in [8], at most 0.06 mg/L [S]; in assay [9], 0.25 mg/L [S].
Consider “Candida albicans isolate 314 (Erg11p: WT, Fur1p: WT, Tac1p: N896S,I895T)”, for which the MIC in assay [1] is 0.06 mg/L [S]; in assay [2], 0.015 mg/L [S]; in [3], at most 0.015 mg/L [S]; in assay [4] it was 0.03 mg/L [S]; in assay [5], 0.06 mg/L [S]; in assay [6] it was at most 0.008 mg/L [S]. Besides, the MIC stood at 0.5 mg/L [S] in [7], 0.12 mg/L [S] in assay [8] and 0.5 mg/L [S] in [9].
In the case of “Candida albicans isolate 315 (Erg11p: WT, Fur1p: WT, Tac1p: N896S,I895T)”, the MIC in [1] was 0.03 mg/L [S]; in [2], 0.015 mg/L [S]; in assay [3], 0.06 mg/L [S]; in assay [4], 0.015 mg/L [S]; in assay [5], 0.03 mg/L [S]; in assay [6], at most 0.008 mg/L [S]. Further, the figures for the minimal inhibitory concentration (MIC) in assay [7], in [8] and in [9] were 0.25 mg/L [S], at most 0.06 mg/L [S] and 0.5 mg/L [S], respectively.
As to “Candida albicans isolate 316 (Erg11p: WT, Fur1p: WT, Tac1p: A377V,F189S,N174D,M170I,K87N)”, the MIC in [1] was at least 16 mg/L [R]; in [2], at most 0.008 mg/L [S]; in [3] it was 0.12 mg/L [S]; in [4], at least 8 mg/L [R]; in assay [5], 0.06 mg/L [S]; in [6], at least 8 mg/L [R]. In addition, the MIC is 0.5 mg/L [S] in assay [7], 0.12 mg/L [S] in assay [8] and at least 256 mg/L [R] in assay [9].
“Candida albicans isolate 317 (Erg11p: V437I, Fur1p: WT, Tac1p: N896S,I895T,L695F,I558V,A377V,F189S,N174D,M170I,L131I,K87N)”: the minimal inhibitory concentration (MIC) in assay [1] is at most 0.015 mg/L [S]; in [2], 0.015 mg/L [S]; in assay [3] it was 0.06 mg/L [S]; in [4], 0.015 mg/L [S]; in assay [5], 0.03 mg/L [S]; in assay [6] it was at most 0.008 mg/L [S]. In addition, the MIC in assay [7] was 0.25 mg/L [S]; in assay [8] it was at most 0.06 mg/L [S]; in [9] it was 0.25 mg/L [S].
Consider “Candida albicans isolate 318 (Erg11p: V488I,E266D, Fur1p: WT, Tac1p: N896S,I895T)”, for which the minimum inhibitory concentration (MIC) in assay [1] is at most 0.015 mg/L [S]; in [2], 0.015 mg/L [S]; in assay [3], at most 0.015 mg/L [S]; in assay [4] it was 0.015 mg/L [S]; in [5] it was 0.03 mg/L [S]; in assay [6], at most 0.008 mg/L [S]. Besides, the MIC in [7] is 0.25 mg/L [S]; in assay [8] it was at most 0.06 mg/L [S]; in assay [9] it was 0.25 mg/L [S].
With “Candida albicans isolate 319 (Erg11p: D153E, Fur1p: WT, Tac1p: N896S)”, the minimum inhibitory concentration (MIC) in [1] is 0.03 mg/L [S]; in assay [2], 0.015 mg/L [S]; in [3], 0.06 mg/L [S]; in assay [4] it was 0.03 mg/L [S]; in [5] it was 0.06 mg/L [S]; in assay [6] it was at most 0.008 mg/L [S]. The values for the minimum inhibitory concentration (MIC) in assay [7], in assay [8] and in assay [9] were 0.5 mg/L [S], 0.12 mg/L [S] and 0.5 mg/L [S], respectively.
Turning to “Candida albicans isolate 320 (Erg11p: G465S,Y132H, Fur1p: R101C, Tac1p: L704F)”, the MIC in assay [1] was 0.5 mg/L [R]; in assay [2] it was 0.015 mg/L [S]; in [3], at most 0.015 mg/L [S]; in assay [4], 0.5 mg/L [R]; in assay [5], 0.03 mg/L [S]; in assay [6], 4 mg/L [R]. The MIC turned out to be 0.5 mg/L [S] in assay [7], 0.25 mg/L [S] in [8] and 32 mg/L [R] in assay [9].
With “Candida albicans isolate 321 (Erg11p: V488I,E266D, Fur1p: WT, Tac1p: N896S,L695F,I558V,F189S,L131I)”, the MIC is 0.06 mg/L [S] in assay [1]; at most 0.008 mg/L [S] in assay [2]; 0.03 mg/L [S] in assay [3]; 0.03 mg/L [S] in assay [4]; 0.06 mg/L [S] in [5]; 0.015 mg/L [S] in [6]. Also, the minimum inhibitory concentration (MIC) stood at 0.5 mg/L [S] in assay [7], 0.12 mg/L [S] in assay [8] and 1 mg/L [S] in [9].
Take “Candida albicans isolate 322 (Erg11p: V488I,Y401*,E266D, Fur1p: E51K, Tac1p: N896S)”: the minimal inhibitory concentration (MIC) is at most 0.015 mg/L [S] in [1]; 0.015 mg/L [S] in assay [2]; 0.06 mg/L [S] in [3]; at most 0.008 mg/L [S] in [4]; 0.03 mg/L [S] in [5]; at most 0.008 mg/L [S] in [6]. The figures for the MIC in [7], in [8] and in assay [9] were 0.25 mg/L [S], at most 0.06 mg/L [S] and at most 0.12 mg/L [S], respectively.
With “Candida albicans isolate 323 (Erg11p: V488I,E266D, Fur1p: WT, Tac1p: M170V,S108N)”, the minimum inhibitory concentration (MIC) in assay [1] was 0.06 mg/L [S]; in [2] it was 0.015 mg/L [S]; in assay [3] it was 0.06 mg/L [S]; in assay [4] it was 0.015 mg/L [S]; in [5], 0.03 mg/L [S]; in assay [6], at most 0.008 mg/L [S]. Besides, the minimal inhibitory concentration (MIC) in [7] was 0.5 mg/L [S]; in [8], at most 0.06 mg/L [S]; in assay [9], 0.5 mg/L [S].
Turning to “Candida albicans isolate 324 (Erg11p: WT, Fur1p: WT, Tac1p: N896S)”, the MIC in [1] was 0.03 mg/L [S]; in [2], 0.015 mg/L [S]; in assay [3], 0.06 mg/L [S]; in assay [4], 0.015 mg/L [S]; in [5], 0.03 mg/L [S]; in [6], at most 0.008 mg/L [S]. The results for the MIC in assay [7], in [8] and in assay [9] were 0.25 mg/L [S], at most 0.06 mg/L [S] and 0.25 mg/L [S], respectively.
For the test system “Candida albicans isolate 325 (Erg11p: G472R, Fur1p: R101C, Tac1p: WT)”, the minimal inhibitory concentration (MIC) in assay [1] was at most 0.015 mg/L [S]; in assay [2], 0.015 mg/L [S]; in [3], at most 0.015 mg/L [S]; in assay [4], 0.015 mg/L [S]; in [5], 0.03 mg/L [S]; in assay [6] it was at most 0.008 mg/L [S]. Also, the values for the minimal inhibitory concentration (MIC) in [7], in assay [8] and in [9] were 0.25 mg/L [S], at most 0.06 mg/L [S] and at most 0.12 mg/L [S], respectively.
With “Candida albicans isolate 326 (Erg11p: K499N,E266D, Fur1p: WT, Tac1p: R800K,L695F)”, the MIC is 0.03 mg/L [S] in assay [1]; 0.015 mg/L [S] in [2]; 0.12 mg/L [S] in assay [3]; 0.015 mg/L [S] in assay [4]; 0.06 mg/L [S] in assay [5]; at most 0.008 mg/L [S] in [6]. Further, the MIC in assay [7] was 0.5 mg/L [S]; in assay [8], at most 0.06 mg/L [S]; in [9] it was 0.25 mg/L [S].
